“And” between values parts separate entries of the source, which are not always exact repeats. Identical values can stand only once.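 Tested at 5 concentrations; 48 h exposure; 96-well plates; endpoints linearly interpolated, else capped at highest concentration. GI50 marks 50% less growth. TGI: concentration producing complete growth inhibition.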
The compounds below were run on NCI-H322M lung (assay: NCI-60 cell line screen, 48 h).
`Oc1c(N2CCCCC2)cc(-c2cc(N3CCCCC3)c(O)c3ccccc23)c2ccccc12` gave a TGI of 34.2 µM.
Compound `CCN(CC)CCNc1ccc2ncn3c4ccc(O)cc4c(=O)c1c23` has a TGI of 15.5 µM.
Work on `S=C1Cc2c(-c3ccccc3)cc(-c3cccc(Cl)c3)nc2-c2ccccc2N1` yielded a TGI of 15 µM.
In the case of `COc1ccc(-c2oc3cc(-c4cc5oc(-c6ccc(OC)cc6)c(-c6ccc(OC)cc6)c5cc4OC)c(OC)cc3c2-c2ccc(OC)cc2)cc1`, the TGI is reported as > 100 µM.
For `Cc1cc2nc3c(C#N)c(-c4ccccc4)/c(=C\Nc4ccc(F)cc4)c(=O)n3c2cc1C`, the TGI was > 100 µM.
`O=C1CC(O)c2cscc21` (stereo not drawn) was tested, and the TGI was > 100 µM.
Work on `NS(=O)(=O)c1nnc(NC(=S)NC(=O)Nc2ccc(Cl)c(Cl)c2)s1` yielded a TGI of 56.9 µM.
For `CC(=O)Nc1ccc(C2CC(c3ccc([N+](=O)[O-])cc3)=Nc3ccccc3S2=O)cc1` (stereo not drawn), the TGI was > 100 µM.
`COc1cc2nnc3c4cccnc4[nH]c3c2cc1OC` was tested, and the GI50 was 23.4 µM and 20.6 µM and the TGI was 50 µM and 59.2 µM.
For `CN(C)c1ccc(-c2cc(-c3ccc(Nc4nc(Nc5ccc(Cl)cc5)nc(Nc5ccc(Cl)cc5)n4)cc3)nc(N)c2C#N)cc1`, the GI50 was > 100 µM and the TGI was > 100 µM.
For `Nc1nc(=S)c2c(ncn2CCO)[nH]1`, the TGI was > 100 µM.
For `COC(=O)[C@@H]1[C@@H]2NC(=S)N[C@@]1(C)Oc1ccccc12`, the TGI was > 100 µM.
In the case of `Oc1ccc(C(=C(Br)c2ccccc2)c2ccc(O)cc2)cc1`, the TGI is reported as 20.5 µM.
`NC1=NC2(COC(c3ccccc3)(c3ccccc3)c3ccccc3)OC(COC(c3ccccc3)(c3ccccc3)c3ccccc3)C(O)C2O1` (stereo not drawn) was tested, and the TGI was > 100 µM.
For `C=CCC(CCC(C)=O)(C(=O)OCC)C(=O)OCC`, the TGI was > 100 µM.
With `CC(SC(=S)N1CCOCC1)C(=O)Nc1nnc(-c2ccc(Cl)cc2)o1` (stereo not drawn) the TGI was > 100 µM.
With `O=C(NCCC1CNc2ccccc21)OCc1ccccc1` (stereo not drawn) the TGI was > 100 µM.
With `COC(=O)/C=C/c1ccc(OP(=O)(O)O)c(OC)c1` the TGI was > 100 µM.
With `O=C1c2cc(O)c(O)cc2O[C@H](c2ccc(O)c(O)c2)[C@H]1O` the TGI was > 100 µM.
`Cc1ccc(N=N/C(=N/NC(=O)c2ccccc2)c2ccc(N(CCC#N)CCC#N)cc2C)cc1` was tested, and the TGI was > 100 µM.
In the case of `COc1ccc(-c2nc3ccc(Cc4ccc5nc(-c6ccc(OC)cc6)[nH]c5c4)cc3[nH]2)cc1`, the GI50 is reported as 0.481 µM and the TGI is reported as 2.85 µM.
For `COc1ccc2c(C(=O)O)cc3ccccc3c2c1OC`, the TGI was > 100 µM.
In the case of `O=c1cc(Nc2cccc(O)c2)[nH]c(=O)[nH]1`, the TGI is reported as > 100 µM.
For `COc1ccc(-c2c(C3=NCCCN3)nnn2-c2ccccc2)cc1`, the TGI was > 100 µM.
With `C=C1CC[C@@H](CCC2CCC3(OC2)O[C@]2(O)CC[C@@]3(C)OC2(C)C)C(C)(C)[C@H]1C/C=C1\CCOC1=O` (stereo partly drawn) the TGI was > 100 µM.
For `Cc1cc(N(CCC#N)CCC#N)ccc1/C(N=Nc1ccccc1)=N\NC(=O)c1cc(Cl)ccc1O`, the TGI was > 100 µM.
For `Cc1[nH]n(-c2nc3c(c(=O)[nH]2)CCCC3)c(=O)c1CCO`, the TGI was > 100 µM.
With `COCCN(Cc1ccc(F)cc1)c1ccc(CO)c(Cl)c1` the GI50 was 43.9 µM and the TGI was > 100 µM.
Compound `COc1ccccc1CNCCN1C(=O)c2ccc3c4c(ccc(c24)C1=O)C(=O)N(CCNCc1ccccc1OC)C3=O` has a GI50 of 0.236 µM and a TGI of 0.698 µM.
`NNc1nnc(CCCCCCCCc2nnc(NN)n2N)n1N` was tested, and the TGI was > 100 µM.
`O=[N+]([O-])c1cccc2nc3ccccc3c(NCCCCCNc3c4ccccc4nc4cccc([N+](=O)[O-])c34)c12` was tested, and the GI50 was 0.0135 µM and the TGI was 0.409 µM and 0.178 µM.
With `O=C1c2ccccc2C(=O)c2[nH]cnc21` the TGI was > 100 µM.
With `NC(N)=NCCCC(NCc1c2ccccc2nc2ccccc12)C(=O)O` (stereo not drawn) the TGI was > 100 µM.
In the case of `O=[N+]([O-])c1ccc(-c2ccc(C3=Nn4c(CNc5ccccc5Cl)nnc4SC3)o2)cc1`, the TGI is reported as > 100 µM.
`N#Cc1ccc(Sc2nc3ccccc3[nH]2)cc1` was tested, and the TGI was > 100 µM.
`O=c1[nH]c(N/N=C\C(O)C(O)C(O)C(O)CO)nc2ccccc12` (stereo not drawn) was tested, and the TGI was > 100 µM.
`CCOc1cnc(C(O)(c2ccccc2)c2ccccc2)o1` was tested, and the TGI was > 100 µM.
With `CCO/C=C1\SC(=S)N(c2ccc(OCC)cc2)C1=O` the TGI was > 100 µM.
Work on `COC12C(COC(=O)NCCO)C3=C(C(=O)C(C)=C(N)C3=O)N1CC1NC12` (stereo not drawn) yielded a GI50 of 75.7 µM and a TGI of 225 µM.
`O=c1[nH]c2[nH]c(=S)[nH]c(=S)c2[nH]1` was tested, and the TGI was > 100 µM.
`CCOC(=O)/C(=C\c1cccc(C)c1)C(C)=O` was tested, and the TGI was 37.4 µM.

Reference: PubChem BioAssay (NCI)
